Experimental data from PMC6919601, “Identification of Plasmodium dipeptidyl aminopeptidase allosteric inhibitors by high throughput screening” (PLoS ONE, 2019).
In all, about 110,000 compounds went through this assay and about 230 (0.21%) showed an effect of 50% or more. The list shows a part of the results.

Each molecule was assayed against DPAP1 (Plasmodium falciparum, UniProt Q8IIJ9) (assay: primary screen, percent inhibition; read by cleavage of a fluorogenic dipeptide substrate; higher = more effect of the substance).
Set-up: species or system P. falciparum D10 trophozoite lysates; single well
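Note: 30 min substrate incubation versus DMSO and 10 µM JCP410 controls.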

DPAP1, sequence (Q8IIJ9 whole entry, looked up): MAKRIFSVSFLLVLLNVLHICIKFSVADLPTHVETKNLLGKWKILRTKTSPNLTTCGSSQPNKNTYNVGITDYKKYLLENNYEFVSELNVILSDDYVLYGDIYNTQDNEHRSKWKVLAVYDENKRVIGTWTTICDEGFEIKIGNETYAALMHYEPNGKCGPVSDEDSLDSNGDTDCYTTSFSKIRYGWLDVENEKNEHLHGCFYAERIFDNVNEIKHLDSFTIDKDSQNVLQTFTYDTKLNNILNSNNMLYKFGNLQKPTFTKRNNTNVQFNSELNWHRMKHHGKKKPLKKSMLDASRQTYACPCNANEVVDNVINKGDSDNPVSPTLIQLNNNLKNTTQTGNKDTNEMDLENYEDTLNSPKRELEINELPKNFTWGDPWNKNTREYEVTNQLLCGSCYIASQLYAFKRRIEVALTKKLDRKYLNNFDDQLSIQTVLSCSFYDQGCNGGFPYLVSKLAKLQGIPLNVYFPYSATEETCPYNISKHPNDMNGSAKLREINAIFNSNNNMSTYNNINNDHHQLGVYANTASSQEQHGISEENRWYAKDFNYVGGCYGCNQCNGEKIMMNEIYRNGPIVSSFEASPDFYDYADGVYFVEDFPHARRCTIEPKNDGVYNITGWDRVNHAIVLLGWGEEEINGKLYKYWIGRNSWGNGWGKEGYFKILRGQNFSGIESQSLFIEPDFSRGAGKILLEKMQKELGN

| Structure (SMILES) | % Inhibition @ 10 uM |
| --- | --- |
| CC(=O)c1cc(C(C)(C)c2ccc(O)cc2)cc(C(C)=O)c1O | 4.12% |
| CCOc1cccc2c1OC1(C)CC2C(C(=O)c2ccccc2)C(=O)N1 (stereo not drawn) | -2.21% |
| COc1cc(/C=C2\SC(Nc3ccc(F)cc3)=NC2=O)cc(OC)c1OC | -7.16% |
| O=C(c1scc2c1CCCC2)N1CCN(c2ccccc2)CC1 | -14.4% |
| CCOc1ccc(NC(=O)C2=C(C)NC(=O)NC2c2ccccc2F)cc1 (stereo not drawn) | -2.05% |
| CC(=O)N(CN1C(=O)c2cc(Cl)c(Cl)cc2C1=O)c1cccc(C)c1 | 3.24% |
| Cc1cc(-c2ccc(C)c(S(=O)(=O)N3CCN(C(=O)c4ccco4)CC3)c2)on1 | -3.98% |
| CN1C(=O)c2[nH]nc(-c3ccccc3)c2C1c1ccccn1 (stereo not drawn) | -1.07% |
| Cc1nn(C)c(C)c1S(=O)(=O)N1CCC(C(=O)NC2CCCc3ccccc32)CC1 (stereo not drawn) | 0.708% |
| COc1cc(C2C3=C(O)CC(C)(C)CC3=NC(C)=C2C(=O)Nc2ccc(F)cc2)cc(OC)c1OC (stereo not drawn) | -4.48% |
| O=C(c1ccc([N+](=O)[O-])cc1)N1CCCCCC1 | -3.79% |
| O=C(Nc1cc(Cl)ccc1Cl)c1ccc(Cn2cc(Cl)cn2)o1 | 0.317% |
| O=C(NC(Cc1ccccc1)C(=O)NCCc1ccccc1)C1CCCCC1 (stereo not drawn) | 4.69% |
| Cc1cc(NC(=O)Nc2cn(C)c(=O)c3ccccc23)no1 | 2.5% |
| CCOc1ccc(C(CC(=O)O)NC(=O)C2CCCCC2)cc1OC (stereo not drawn) | 0.279% |
| N#CCNC(=O)C(CC(=O)N1CCCC1)CS(=O)(=O)Cc1ccccc1 (stereo not drawn) | -5.21% |
| CCOC(=O)c1ccc(CNC(=O)CSc2nnnn2-c2ccc(Cl)cc2)o1 | 2.7% |
| O=C1CCCN1c1cccc2ccccc12 | 4.44% |
| CCN(Cc1ccccc1)C(=O)c1ccc(C/N=c2/c(N3CCOCC3)c(O)c2=O)cc1 | 2.76% |
| Cc1cc(C)c2nc(N3CCC(C(=O)N4CCN(C5CCCCC5)CC4)CC3)sc2c1 | 4.95% |
| Cc1cc(/C=C2/C(=N)N3C=CSC3=NC2=O)c(C)n1-c1ccccc1 | -2.98% |

| Structure (SMILES) | % Inhibition @ 10 uM |
| --- | --- |
| COc1ccc2[nH]c(C)c(CCNCc3cn(C)c4ccccc34)c2c1 | -4.35% |
| CCC1(C)Cc2ccccc2-c2[nH]nc(O)c21 (stereo not drawn) | -1.24% |
| COc1ccc(-c2noc(CCC(=O)Nc3cccnc3)n2)cc1OC | -1.35% |
| COc1cc2c(cc1OC)C(C(=O)NC1CCCCC1)C1c3ccccc3CCN1C2=O (stereo not drawn) | 0.208% |
| Cc1cccnc1NC(=O)CN1Cc2ccccc2C1=O | 5.08% |
| Nc1cc[n+](CCCc2ccccc2)cc1 | -2.53% |
| OCCN1CCN(Cc2ccc(Br)cc2)CC1 | 3.47% |
| Fc1ccccc1N1CCN(CC(S)COCc2ccccc2)CC1 (stereo not drawn) | -1.68% |
| Cc1cc(/C=C2\C(=N)N3N=C(S(=O)(=O)CC(C)C)SC3=NC2=O)c(C)n1Cc1ccccc1 | -1.54% |
| O=C(CCCn1c(=O)c2cccn2c2cccnc21)NCCCN1CCOCC1 | 1.22% |
| CC(C)(C)c1ccc(OCC(O)CN2CCCCC2)cc1 (stereo not drawn) | -2.12% |
| CCOc1ccc(-c2cn3nc(C4CCCCC4)sc3n2)cc1 | 4% |
| CCOc1ccccc1CNCc1c(C(=O)O)n(Cc2cccc(F)c2)c2cc(C)ccc12 | -0.899% |
| CN1CCC(COC2c3ccccc3C=Cc3ccccc32)CC1 | 2.01% |
| COc1cc(C(=O)c2ccccc2)c(OC)cc1C(=O)Nc1ccc(N(C)C)cc1 | 3.69% |
| O=S(=O)(Nc1cc(Cl)cc(Cl)c1)c1ccc(F)cc1 | -3.44% |
| COc1cc(/C=C2\SC(N)=NC2=O)ccc1OCc1ccc(C)cc1 | 11.9% |
| CCC(C)c1ccccc1OCC(=O)Nc1ccc(C(N)=O)cc1 (stereo not drawn) | -2.74% |
| O=C(COc1ccc(Cl)cc1)Nc1cccc(NC(=O)COc2ccc(Cl)cc2)c1 | -2.82% |
| CC(=O)NS(=O)(=O)c1ccc(NC(=O)COc2ccc(Br)c(C)c2)cc1 | 3.58% |
| CCCC1CCc2c(sc(NC(=O)c3ccccc3OCC)c2C(N)=O)C1 (stereo not drawn) | -3.26% |

| Structure (SMILES) | % Inhibition @ 10 uM |
| --- | --- |
| CCCS(=O)(=O)N1CCN(Cc2ccc(OC)c(OC)c2)CC1 | -1.6% |
| Cc1coc2c(C)c3oc(=O)c(CC(=O)NCCc4ccccc4F)c(C)c3cc12 | 4.13% |
| Cn1c(=O)c(Sc2ccccc2)c(Cl)c2ccccc21 | -3.77% |
| CC(NC(=O)c1ccccc1[N+](=O)[O-])c1ccccc1 (stereo not drawn) | 0.716% |
| CCC(=O)Nc1nonc1-c1nc2ccccc2n1Cc1cccc2ccccc12 | -1.92% |
| C=CCOC(=O)C1=C(C)N=C2CCCC(O)=C2C1c1ccccc1Cl (stereo not drawn) | 19.2% |
| COc1ccc(CNC(=O)c2cc(-c3cc(OC)ccc3OC)on2)cc1 | 3.55% |
| COC(F)(C(=O)Nc1cccn2cc(-c3ccccc3)nc12)C(F)(F)F (stereo not drawn) | -5.15% |
| Cc1ccc(S(=O)(=O)N(C)CCCC(=O)N2CCN(c3ccccn3)CC2)cc1 | 3.8% |
| CC1CN(c2ncccn2)CC(C)O1 (stereo not drawn) | -4% |
| O=C(c1cc(Cl)ccc1Cl)N1CCN(c2ccc(F)cc2)CC1 | 2.16% |
| Nc1c(-c2nc(-c3cccs3)no2)nnn1-c1ccccc1 | 0.0603% |
| CCC(Sc1nncn2c1cc1oc(C)cc12)C(=O)NCc1ccc(C)cc1 (stereo not drawn) | 0.335% |
| CCNc1nc2nc(O)c3c(c2s1)OC(N)=C(C#N)C3c1cccnc1 (stereo not drawn) | -11% |
| CN(C)CCCC(C(N)=O)c1ccccc1Sc1ccc(Cl)cc1 (stereo not drawn) | -2.34% |
| CC(C)(C)C1CN(C(C)(C)C)CC(O)(c2ccccc2)C1 (stereo not drawn) | -1.54% |
| O=C(c1cc(C2CC2)[nH]n1)N1CCN(C(=O)c2cccs2)CC1 | -3.5% |
| CC(CNCc1c(C(=O)O)n(Cc2ccccc2)c2ccccc12)c1ccccc1 (stereo not drawn) | 5.09% |
| CCC(C)NC(=O)CN(Cc1ccccc1)S(=O)(=O)c1cc(Cl)ccc1Cl (stereo not drawn) | -3.33% |
| Cc1cc(NC(=O)c2cc3nc(-c4ccc(Br)cc4)cc(C(F)(F)F)n3n2)no1 | 2.65% |
| C=CCNC(=O)/C(C#N)=C/c1c(Oc2ccc(C(C)(C)C)cc2)nc2c(C)cccn2c1=O | 0.315% |
